# Measured values reported in PubChem BioAssay AID1030 (National Center for Advancing Translational Sciences (NCATS), 2008).
# The campaign covered roughly 220,000 compounds. About 16,000 (7.3%) were called active. Inconclusive means that the source gave no clear call. Such entries were picked first, then a sample of the others. Calls come from the whole dose curve; as a rule, active = well fitted inhibition curve with a large enough effect (not every such curve was filed as active); inconclusive = small, poorly fitted or top-dose-only effect, or another doubt; inactive = no such curve, though single readings can be large or run the other way. Potencies of inconclusive entries are left out as doubtful fits.
# Target: Aldehyde dehydrogenase 1A1 (Homo sapiens) (UniProt P00352)
# UniProt P00352, sequence (P00352 whole entry, looked up): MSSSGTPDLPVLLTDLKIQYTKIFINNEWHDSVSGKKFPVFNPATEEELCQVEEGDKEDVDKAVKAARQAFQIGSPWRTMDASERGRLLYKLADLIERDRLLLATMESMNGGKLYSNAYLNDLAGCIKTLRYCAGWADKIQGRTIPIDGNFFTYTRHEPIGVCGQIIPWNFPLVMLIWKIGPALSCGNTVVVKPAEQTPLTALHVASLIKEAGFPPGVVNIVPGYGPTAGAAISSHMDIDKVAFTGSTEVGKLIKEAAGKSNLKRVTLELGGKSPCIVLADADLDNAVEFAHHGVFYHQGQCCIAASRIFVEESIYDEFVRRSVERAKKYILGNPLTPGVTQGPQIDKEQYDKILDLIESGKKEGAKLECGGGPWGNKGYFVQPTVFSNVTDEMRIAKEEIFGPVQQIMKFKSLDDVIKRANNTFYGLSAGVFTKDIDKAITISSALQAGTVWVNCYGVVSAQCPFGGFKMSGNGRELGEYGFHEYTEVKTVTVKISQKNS
# Assay: qHTS Assay for Inhibitors of Aldehyde Dehydrogenase 1 (ALDH1A1);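 for activity, negative = inhibition: plate controls were no enzyme wells and a reference inhibitor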
# Settings: Purified ALDH1A1, NADH fluorescence, propionaldehyde substrate; series mostly up to 75.3 µM; activity, negative = inhibition: at the top concentration
# Potency is the fitted concentration of half-maximal effect; tags give direction and shape of the fitted curve.
SMILES,Potency,"activity, negative = inhibition"
CCc1cc2c(=O)c(-c3cscn3)coc2c(CN(C)C)c1O,"inconclusive [inhibitor, single point]",
O=C1c2[nH]nc(-c3ccccc3O)c2C(c2ccccc2F)N1Cc1ccco1 (centres undefined),"inconclusive [inhibitor, single point]",
CN(C)S(=O)(=O)c1ccccc1N=C=S,"inconclusive [inhibitor, single point]",
COc1ccc(-n2c(CN3CCC(C(N)=O)CC3)nc3ccc([N+](=O)[O-])cc3c2=O)c(OC)c1,active: 9.46 µM,
Cc1ccc(CS(=O)(=O)c2nc3c(c(N(C)C)n2)CCCC3)cc1,"inconclusive [inhibitor, partial curve]",
COc1cc(-n2c(C)nc3cc(C(=O)N4CCOCC4)ccc32)cc(OC)c1OC,,inactive: 2.05%
COc1cc(S(=O)(=O)N2CCCC3(CCCCC3)C2)ccc1-n1cnnn1,"inconclusive [inhibitor, partial curve]",
COCCn1c(-c2cc(OC)c(OC)c(OC)c2)nc2nc3ccccc3nc21,"inconclusive [inhibitor, single point]",
CSc1ccccc1C(=O)NCC1CCCO1 (centres undefined),,inactive: 6.71%
CC(=O)Nc1ccc(NC2(C)C(=O)c3ccccc3C2=O)cc1,"inconclusive [inhibitor, single point]",
CCCN1CCC(NC(=O)Nc2ccccc2C(=O)OC)CC1,"inconclusive [inhibitor, single point]",
Fc1ccccc1C1c2[nH]c3ccccc3c2CCN1CCCn1cccn1 (centres undefined),"inconclusive [inhibitor, partial curve]",
c1ccc(CN2CCN(c3ncnc4c3[nH]c3ccccc34)CC2)cc1,"inconclusive [inhibitor, single point]",
CC(=O)c1cccc(NC(=O)N2CCCC2C(=O)NC2CCCCC2)c1 (centres undefined),"inconclusive [inhibitor, partial curve, poor fit]",
CC(C)(C)NC(=O)C1CCN(c2ccc(S(=O)(=O)N3CCOCC3)cc2Cl)CC1,,inactive: -2.55%
COc1cccc(-c2nc(C=O)cs2)c1,"inconclusive [inhibitor, single point]",
C=CCN(CC=C)S(=O)(=O)c1ccc(NC(=S)NC(=O)c2ccc(-c3ccccc3)cc2)cc1,active: 3.16 µM,
O=C1OC(/C(=C\Nc2cc(Cl)ccc2O)[N+](=O)[O-])c2ccccc21 (centres undefined),active: 14.1 µM,
COc1cccc(CNc2cccc3cccnc23)c1O,"inconclusive [inhibitor, single point]",
